# The supplement of paper PMC3334620
# Over roughly 33,000 sequences, “E-score (-0.5 to 0.5)” has its median near -0.041; the highest 2% begin near 0.37. The list shows a part of the results.
# Molecular target: T1, Ecm22 (UniProt Q05958)
# T1 sequence: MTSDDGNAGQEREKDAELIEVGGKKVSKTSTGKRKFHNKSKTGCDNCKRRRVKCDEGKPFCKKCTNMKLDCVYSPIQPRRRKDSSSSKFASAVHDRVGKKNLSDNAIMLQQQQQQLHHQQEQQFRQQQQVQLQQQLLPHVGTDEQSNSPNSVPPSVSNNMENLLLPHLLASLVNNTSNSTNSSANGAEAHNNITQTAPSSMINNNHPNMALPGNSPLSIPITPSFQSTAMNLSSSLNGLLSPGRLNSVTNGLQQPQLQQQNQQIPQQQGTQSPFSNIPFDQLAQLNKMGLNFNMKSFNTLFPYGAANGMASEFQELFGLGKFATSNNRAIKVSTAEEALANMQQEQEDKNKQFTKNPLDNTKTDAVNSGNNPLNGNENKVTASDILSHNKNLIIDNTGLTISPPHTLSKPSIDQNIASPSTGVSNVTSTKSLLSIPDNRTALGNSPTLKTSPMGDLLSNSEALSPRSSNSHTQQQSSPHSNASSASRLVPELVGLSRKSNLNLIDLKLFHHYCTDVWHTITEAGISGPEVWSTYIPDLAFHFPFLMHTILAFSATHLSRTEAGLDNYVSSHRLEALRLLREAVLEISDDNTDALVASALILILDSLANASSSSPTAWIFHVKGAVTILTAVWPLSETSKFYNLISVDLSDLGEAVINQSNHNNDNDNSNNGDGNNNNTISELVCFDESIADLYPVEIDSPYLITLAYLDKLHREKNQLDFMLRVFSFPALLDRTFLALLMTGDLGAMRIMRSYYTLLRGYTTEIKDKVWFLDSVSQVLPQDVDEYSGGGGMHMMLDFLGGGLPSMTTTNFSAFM
# Test: PBM E-score (8-mer binding enrichment) (E-score (-0.5 to 0.5)); higher = stronger / more preferred TF binding; most listed sequences are background and not binding sites
# Conditions: protein concentration: 200 nM; construct: GST-full length
# Summary of the method: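 Yeast transcription factors carrying a GST tag, as full-length proteins or DNA-binding domains, were produced by PURExpress in vitro transcription/translation. About 100-200 nM protein was applied to universal all-10-mer Agilent arrays, double-stranded by primer extension on fresh or once-stripped slides. Bound protein was detected with fluorescent anti-GST, and scans were normalised with masliner. The Universal PBM Analysis Suite gave each ungapped eight-base word, pooled with its reverse complement, an E-score, a modified Wilcoxon-Mann-Whitney statistic.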
row,Sequence,PBM E-score
1,CCATTCCA,-0.228
2,AGGAGGGC,-0.212
3,CTGGGAGC,-0.064
4,AACGCGTC,0.115
5,CAACAGAG,-0.255
6,AAAACATC,-0.121
7,GCGAAATA,0.0791
8,GTTCCCCA,0.163
9,AACGCGTT,0.212
10,TAGGAACA,-0.258
11,GATGTGAA,0.0574
12,GATATACC,0.101
13,AAACTTCC,-0.165
14,GAACTTCC,-0.138
15,TGGTATAA,0.0724
16,AGATATCA,-0.0421
17,CATAGCGC,-0.0593
18,CATAACGC,0.00293
19,AAACGAAA,0.449
20,TAAGCTCA,-0.11
21,AAGCTCAG,-0.321
22,CCACACGA,0.0278

row,Sequence,PBM E-score
1,CGTTTGAG,0.32
2,AGGGAAGA,-0.234
3,AGCCGTCG,0.199
4,AAATACTG,-0.0315
5,ACTGCGCG,0.0421
6,CACGGAGG,-0.084
7,CATACGGG,0.36
8,CAAGTATA,-0.0156
9,ATGGCAGC,-0.141
10,CTCACTGC,-0.222
11,AGGAAAAC,0.0952
12,GACTATTA,0.0301
13,TTTAAAAA,-0.0493
14,ATGGATAA,-0.111
15,CATGTAGG,-0.178
16,ATAACGAT,0.0556
17,AGGGAATC,-0.126
18,CGTACCAA,0.444
19,CTCTGTGA,-0.221
20,ACCACGAA,0.0092
21,ACGTGATG,-0.0931
22,AAACAGCG,0.0227

row,Sequence,PBM E-score
1,GTGGACGA,-0.109
2,ATCCGAAC,0.144
3,AGCTTTCC,-0.18
4,AGAGCCGA,0.0772
5,AGGTGAGA,-0.218
6,CTAGTACA,-0.148
7,GGCTATTA,-0.0382
8,ACATTAAT,0.0488
9,CTTCAATC,-0.0969
10,CGGAGGGC,-0.136
11,CCGTTGGA,-0.28
12,AGAGAGAG,-0.0157
13,AACCTAGC,-0.09
14,GATTGTCA,-0.0204
15,ATAACCCA,-0.0752
16,TCCGACGA,0.196
17,TGCGTCAA,-0.231
18,CAATTCCC,-0.0317
19,CATTGCAC,0.04
20,AGCTGTTA,0.00656
21,GTACAAGA,0.12
22,CAAATAGA,-0.0229

row,Sequence,PBM E-score
1,CTCCTAGA,-0.21
2,AGAACCCT,-0.0494
3,AAGCTGTA,0.104
4,ATTGAGCA,-0.152
5,AAAATGAC,-0.123
6,ACCCTCGA,-0.16
7,ACGCATAC,0.227
8,ACCGTCGC,0.278
9,CGCAGTCA,-0.22
10,ACATGACT,-0.248
11,ACCTGTGG,-0.164
12,CTATTGCA,-0.0672
13,ACGGCTGC,0.0588
14,CTCAGGAG,-0.21
15,CAGACTAG,-0.325
16,CACCAGTG,-0.145
17,CCATCGAA,-0.136
18,AGTTTCAC,-0.0972
19,CGCTGGAC,-0.18
20,ACTTCCGC,-0.0376
21,AGAGTGGG,-0.0087
22,ATAATCGA,0.0844

row,Sequence,PBM E-score
1,CAGTTGGG,-0.0976
2,CAGTTCCC,0.102
3,ACGTATTC,0.144
4,AACGCTGG,0.00556
5,AGCCGAAT,0.0783
6,GCTTCGCC,-0.0915
7,CCTTATCG,-0.0002
8,AGGTACGC,0.217
9,ACCAGCTG,-0.0907
10,ACTTGCGG,-0.0228
11,AAGTCAGG,-0.173
12,TACGTACA,0.328
13,CATATCAA,0.0699
14,CGCTAGGC,-0.311
15,GGCCCCAA,-0.0367
16,CAGGTATA,0.0502
17,AAGATAGA,-0.129
18,ATCCAGAG,-0.078
19,AGTCAGCG,-0.216
20,GAACCACC,0.00425
21,GTGCAAAA,-0.177
22,TCGCAAGA,0.0321
